Assay results reported in ChEMBL document CHEMBL1201862, “PubChem BioAssay data set” (2004).
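Growth conditions: 96-well plates. Treatment: test compound, 48 hours, 5 concentrations. Analysis: linear interpolation between bracketing concentrations; unreached endpoints set to highest concentration. Here, GI50 denotes the concentration required for 50% inhibition of growth.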 Activity calls are given as the source filed them. Cut-off read from the data, not from the text of the source: active = GI50 up to about 1.1 µM and inactive = higher.

What follows are molecules tested on NCI-H322M (assay: DTP human tumour cell line panel, 48 h).
With `CC(=O)OC12OC(C)(C3C(=O)N(c4ccccc4)C(=O)C31)N(c1ccccc1)C2=O` (stereo not given) the GI50 was inactive: > 100 µM. In the case of `Cc1cccc(C)c1NC(=O)CCCC(=O)C1/C(=N/NC(=O)CC#N)CCC/C1=N\NC(=O)CC#N` (stereo not given), the GI50 was inactive: > 100 µM. `Cc1ccc2c(c1)nc1n2C(N)=Nc2ccccc2S1` was tested, and the GI50 was inactive: > 100 µM. `S=C(/N=c1\sc(Nc2ccc(Cl)cc2)nc2sc3c(c12)CCN(N1CCc2c(sc4nc(Nc5ccc(Cl)cc5)s/c(=N\C(=S)Nc5ccc(Cl)cc5)c24)C1)C3)Nc1ccc(Cl)cc1` was tested, and the GI50 was inactive: 23.9 µM. In the case of `CC(C)(C)[Si](C)(C)OCCc1ccccc1C1CC2(S(=O)(=O)c3ccccc3)ON1CC2S(=O)(=O)c1ccccc1` (stereo not given), the GI50 was inactive: > 100 µM. `CC1=C(C(N)=O)C(c2ccncc2)C(C#N)=C2SCC(=O)N12` (stereo not given) was tested, and the GI50 was inactive: > 100 µM. For `NCc1ccc(O)c(O)c1O`, the GI50 was inactive: 25 µM. With `O=C1CCC2CCc3cccc4oc1c2c34` (stereo not given) the GI50 was inactive: > 100 µM. For `CCN(CC)c1ccc(/C=C/C2=NN(c3cccc(S(=O)(=O)O)c3)C3(C2)SCC(=O)N3c2nc3ccccc3s2)cc1` (stereo not given), the GI50 was inactive: 61 µM. With `O=C1c2ccccc2-c2c1c(-c1cccc(Br)c1)nc1ccc3ccccc3c21` the GI50 was inactive: > 100 µM. For `CN(C)c1ccc(/C=c2/sc3nc(=O)c(-c4ccccc4NC(=O)C(F)(F)F)nn3c2=O)cc1`, the GI50 was inactive: > 100 µM. For `CCCOC1OC(CS(=O)(=O)O)C(OC(C)=O)C(OC(C)=O)C1OC(C)=O` (stereo not given), the GI50 was inactive: > 100 µM. For `O=C1/C(=C/c2ccc3c(c2)OCO3)SC2C=Nc3ccccc3N12` (stereo not given), the GI50 was inactive: > 100 µM. In the case of `COC1(OC)C2(Cl)C(Cl)=C(Cl)C1(Cl)C1C2C2CC1(C(=O)O)c1ccccc12` (stereo not given), the GI50 was inactive: 49.2 µM. For `COC1=CC(=O)C=C(OC)C1=O` [2,6-DIMETHOXYQUINONE], the GI50 was inactive: 7.85 µM. In the case of `Cc1ccc2c(c1)C(=C(C#N)C#N)CCCS2(=O)=O`, the GI50 was inactive: > 100 µM. `c1ccc2c(c1)oc1ccc3nsnc3c12` was tested, and the GI50 was inactive: > 100 µM. `COc1ccccc1C(=O)Nc1ccc(Cl)c(C(=O)OC(C)C)c1` was tested, and the GI50 was inactive: > 100 µM. With `Cc1ccc(OP2(=O)Oc3ccc4ccccc4c3CN2c2ccc(Cl)cc2)cc1C` (stereo not given) the GI50 was inactive: > 100 µM. For `[O-][S+]1c2ccccc2N=C(c2cccc3ccccc23)CC1c1cccc2ccccc12` (stereo not given), the GI50 was inactive: 15.6 µM. For `CCCCP1(=O)C=CC(Cl)=C(C)C1` (stereo not given), the GI50 was inactive: > 100 µM. With `CN(C)CCNC(=O)c1c(O)ccc2c1c1c(n2CCc2ccccc2)C(=O)c2ccccc2C1=O` the GI50 was inactive: 7.59 µM. In the case of `O=C(/C(=C\c1ccccc1)CN1CCOCC1)c1ccc(Br)cc1`, the GI50 was inactive: 8.17 µM. In the case of `COc1cc(/C=N\O)cc(/C=N/O)c1O`, the GI50 was inactive: 50.7 µM. For `CCCCCCCCC[C@@H]1C[C@@H]2CCC3C(C(=O)OCCCCNC(=O)OCc4ccccc4)=C(C)N=C(N1)N32` (stereo not given in full), the GI50 was inactive: 12.3 µM. In the case of `Clc1nc(Cl)nc(NC23CC4CC(CC(C4)C2)C3)n1`, the GI50 was inactive: 21.6 µM. With `COc1ccc(/C=c2/sc3n(c2=O)NC(c2ccc(Cl)cc2)NN=3)cc1` (stereo not given) the GI50 was inactive: > 100 µM. With `O=C1Cc2c([nH]c3ccc(Br)cc23)-c2cc(Br)ccc2N1` the GI50 was inactive: > 100 µM. `O=C(CCCCCCCCC(=O)NN1C(=O)/C(=C\c2ccc(O)c(O)c2)SC1c1c(O)ccc2ccccc12)NN1C(=O)C(=Cc2ccc(O)c(O)c2)SC1c1c(O)ccc2ccccc12` (stereo not given) was tested, and the GI50 was inactive: 3.01 µM. For `CNC(=O)OCC1=C(COC(=O)NC)C(C)N(c2ccccc2)C1` (stereo not given), the GI50 was inactive: 40.8 µM. `O=P1(Oc2ccc(Cl)cc2Cl)Oc2cc3ccccc3cc2O1` was tested, and the GI50 was inactive: 55 µM. In the case of `NNC(=O)c1ccccc1Nc1ccccc1C(=O)NN`, the GI50 was inactive: > 100 µM. In the case of `C/C=C/C(C/C=C(\C)CO[Si](C)(C)C(C)(C)C)O[Si](C)(C)C(C)(C)C` (stereo not given), the GI50 was inactive: > 100 µM. For `CCC1(Cl)C(=O)NC(=O)N(C2CC(O)C(CO)O2)C1N=[N+]=[N-]` (stereo not given), the GI50 was inactive: > 100 µM. In the case of `O=C1CCCc2ccc([N+](=O)[O-])c(O)c21`, the GI50 was inactive: 93.3 µM. `CCCCC/C(=N\c1[nH]cnc1C(N)=O)OCC` was tested, and the GI50 was inactive: > 100 µM. `S=c1nc(N2CCCCC2)c2cn[nH]c2[nH]1` was tested, and the GI50 was inactive: 74.5 µM. `CC(=O)C(C(=O)c1ccc(C)cc1)[C@@H]1OC(C)(C)O[C@@H]1[C@H]1COC(C)(C)O1` (stereo not given in full) was tested, and the GI50 was inactive: 15.3 µM. With `O=S(=O)(O)CS(=O)(=O)OCCCl` the GI50 was inactive: > 100 µM. With `CO/N=C1/C(n2[nH]c(=O)n(-c3ccccc3)c2=O)C2C=CC1n1c(=O)n(-c3ccccc3)c(=O)n12` (stereo not given) the GI50 was inactive: > 100 µM. For `N#CCc1nnc(N)o1`, the GI50 was inactive: > 100 µM. For `CCCCCCCC(=O)NS(=O)(=O)c1ccccc1`, the GI50 was inactive: > 100 µM. With `CC1(O)CC2C(CC1SC1CC3C(CC1(C)O)C3(C)C)C2(C)C` (stereo not given) the GI50 was inactive: > 100 µM. With `NCCN(CCN(C(=O)Nc1ccccc1)c1ccccc1)C(=O)Nc1ccccc1` the GI50 was inactive: 24.8 µM. For `O=C(c1nc2ccccc2nc1O)C(O)c1ccco1` (stereo not given), the GI50 was inactive: > 100 µM. `O=C(NCCCCNCCCNC(=O)C(F)(F)F)C(F)(F)F` was tested, and the GI50 was inactive: > 100 µM. In the case of `c1ccc(COC2(OCc3ccccc3)CC3OC2C2NN=NC32)cc1` (stereo not given), the GI50 was inactive: 75.3 µM. With `O=c1oc2ccccc2n1P(=O)(n1c(=O)oc2ccccc21)n1c(=O)oc2ccccc21` the GI50 was inactive: > 100 µM. For `Cc1cc(C)c(-c2noc(-c3ccc(Cl)cc3)c2C2=NCCN2)c(C)c1`, the GI50 was inactive: 26.4 µM. In the case of `CCC(=O)O[C@H]1CC[C@H]2[C@@H]3CCC4=C/C(=N/OC(=O)c5cccc6c(=O)c7ccccc7[nH]c56)CC[C@]4(C)[C@H]3CC[C@]12C`, the GI50 was inactive: 34.4 µM. In the case of `NC1CC(=O)c2csc(Cl)c21` (stereo not given), the GI50 was inactive: 18.1 µM. `CCC1(O)CC(OC2CC(N(C)C)C(OC3CC(O)C(OC4OC(C)C(=O)C=C4N)C(C)O3)C(C)O2)c2c(O)c3c(c(O)c2C1C(=O)OC)C(=O)c1cccc(O)c1C3=O` (stereo not given) was tested, and the GI50 was active: 0.01 µM. `COc1cc2cc(C(=O)N3CC(CCl)c4c3cc([N+](=O)[O-])c3ccccc43)[nH]c2c(OC)c1OC` (stereo not given) was tested, and the GI50 was inactive: > 91 µM. For `CN(C)CC1CC/C(=C\c2ccc3c(c2)OCO3)C1=O` (stereo not given), the GI50 was inactive: 24.9 µM. In the case of `O=C1/C(=C/c2ccccc2)CN(C(=O)Oc2ccc([N+](=O)[O-])cc2)C/C1=C\c1ccccc1`, the GI50 was inactive: > 10 µM. With `CC(C)Oc1c(C2(c3ccccc3O)SCCCS2)c(=O)c1=O` the GI50 was inactive: > 100 µM. `CC1(C)OC(=O)C(Cc2ccccc2)(Cc2ccccc2)C(=O)O1` was tested, and the GI50 was inactive: > 100 µM. In the case of `CC(=O)c1sc2n(C)c(=O)c3ccccc3[n+]2c1C`, the GI50 was inactive: > 100 µM. `COc1ccc(C(O)c2ccc3c(c2)OCO3)cc1` (stereo not given) was tested, and the GI50 was inactive: > 100 µM. For `CCSc1nc(N)c2c(-c3ccccc3)c3c(nc2n1)CCC3`, the GI50 was inactive: > 100 µM. With `O=C1Oc2ccccc2C(=O)/C1=C/N1C(=O)N/C(=C\c2cccc(O)c2)C1=O` the GI50 was inactive: 84.7 µM. For `CC(C)[Si](OC1=C(C(=O)N(C)c2ccccc2Cl)CCCCC1)(C(C)C)C(C)C`, the GI50 was inactive: > 100 µM. With `CNC(=O)C(C)C1CCC2(C)C=CC(=O)C(C)=C2C1O` (stereo not given) the GI50 was inactive: > 100 µM. With `CC(=O)O[C@@H](C1C[C@@H](C)[C@H]2[C@@](O)(O1)[C@H](O)[C@@]1(C)C3=CC[C@H]4C(C)(C)[C@@H](OC5OCC(O)C(O)C5O)CC[C@@]45C[C@@]35CC[C@]21C)C(C)(C)O` (stereo not given in full) the GI50 was inactive: 35.3 µM. In the case of `COc1ccc2cc(C(C)C(=O)N3CCOC3=O)ccc2c1` (stereo not given), the GI50 was inactive: > 100 µM. `COC1CC(Br)(C#N)C1` (stereo not given) was tested, and the GI50 was inactive: > 100 µM. For `O=C(C(=O)n1ccc2ccccc21)c1c[nH]c2ccccc12`, the GI50 was inactive: > 10 µM. For `CC1=NN(c2nc(N)nc(C(C#N)C(=O)c3cc4c(cc3Cl)Sc3nccn3S4(=O)=O)n2)C(C)(C)C1` (stereo not given), the GI50 was inactive: 24 µM. With `NNC(=O)N/N=C1\C(=O)N(c2ccc(Cl)c(Cl)c2)C(=O)C(=O)C1c1nc2ccccc2s1` (stereo not given) the GI50 was inactive: > 100 µM. For `C=CC/N=C1\NC(=O)C(CC(=O)Nc2ccc(C)cc2)S1` (stereo not given), the GI50 was inactive: > 100 µM. With `O=C(c1cccs1)N(C(=S)OCc1ccccn1)c1ccccc1` the GI50 was inactive: > 100 µM. For `N=C(N)N/N=C(\c1ccc(Cl)cc1)C1CC1`, the GI50 was inactive: 23.2 µM. `COc1cc2nc(Sc3c([N+](=O)[O-])ncn3C)[nH]c2cc1OC` was tested, and the GI50 was inactive: 50.8 µM. `COc1ccc(/C=C2\C(=O)N(C(=O)Cc3ccccc3)N=C2C)cc1OC` was tested, and the GI50 was inactive: > 100 µM. With `CC1(SCC(N)C(=O)O)CC(=O)NC1=O` (stereo not given) the GI50 was inactive: > 100 µM. In the case of `COC(=O)C1(C)CCc2c(ccc3ccccc23)C1=O` (stereo not given), the GI50 was inactive: 27.1 µM. With `COc1ccc(C2c3cc4c(cc3OC(O)(CO)C2C(=O)O)OCO4)cc1.COc1ccc(C2c3cc4c(cc3OC3(O)COC(=O)C23)OCO4)cc1` (stereo not given) the GI50 was inactive: 39.6 µM. With `CC1=C2C(=O)C3[C@@H](CCC4=CC(=O)CC[C@@]43C)C2CC[C@]12O[C@@H]1C[C@H](C)CN[C@H]1[C@H]2C` (stereo not given in full) the GI50 was inactive: > 100 µM. `Cc1ccc(S(=O)(=O)N/N=C2\CC3CC4CCC2C4C3)cc1` (stereo not given) was tested, and the GI50 was inactive: > 100 µM. For `CCOC(=O)c1c(C(F)(F)F)oc2c1ccc1nc3nonc3nc12`, the GI50 was inactive: 29.9 µM. For `COc1cc(OC)c(/C=C2\N=C(C)N(Nc3nnc(NN4C(=O)/C(=C/c5c(OC)cc(OC)cc5OC)N=C4C)c4ccccc34)C2=O)c(OC)c1`, the GI50 was inactive: > 100 µM. With `CCOC(=O)CNC(=O)C(CSCC1C(=O)Nc2ccccc21)NC(=O)CCC(N)C(=O)OCC` (stereo not given) the GI50 was inactive: 4.83 µM. `Cc1cc2c(C)n(Cc3ccccc3Cl)nc2c(C(=O)O)c1C` was tested, and the GI50 was inactive: > 100 µM. For `CC(C)(Cc1ccccc1)NC1=NCCO1`, the GI50 was inactive: > 100 µM. In the case of `CCCn1cnc2c(/N=N/O)ncnc21`, the GI50 was inactive: > 100 µM. For `N=c1oc2ccccc2cc1C(=O)NC12CC3CC(CC(C3)C1)C2`, the GI50 was inactive: 22.2 µM. In the case of `CC1(C)C=C(S(=O)(=O)c2ccccc2)Oc2ccccc2O1`, the GI50 was inactive: > 100 µM. For `CC(=O)Nc1ccc(/C=C/C(=O)N2CC(CCl)c3c2cc(N)c2ccccc32)cc1` (stereo not given), the GI50 was active: < 0.005 µM. `COc1ccc(/N=N/C(=O)NC(CC(C)C)C(=O)NC(C)C(=O)O)cc1` (stereo not given) was tested, and the GI50 was inactive: > 60.3 µM. In the case of `COC(=O)CCC(C)[C@H]1CCC2C3C(C[C@H](OC(C)=O)[C@@]21C)[C@@]1(C)CCC2(C[C@H]1C[C@H]3OC(C)=O)OOC1(CCC(C)CC1)OO2` (stereo not given in full), the GI50 was inactive: > 100 µM.
